From PubChem BioAssay AID1346428 (National Center for Advancing Translational Sciences (NCATS), 2018) come the findings set out here.

Values joined by “and” are separate entries in the source; they are usually repeats but may differ in a detail not shown here. Equal values may be shown once. Out of some 48,000 compounds screened, about 1,200 (2.5%) were called active. Roughly 2% stayed inconclusive and do not appear here.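 Rule for the calls: active = activation of at least 60% and not above a set upper limit (about 1 call in 100 departs from these limits); inconclusive = activation of 40% to 60%, or above that upper limit; inactive = activation under 40%.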 The list shows a part of the results.

For the assay, the target named is Probable G-protein coupled receptor 32 (Homo sapiens) (UniProt O75388). The assay can be described thus: qHTS for Agonists of Human Resolvin D1 Receptor DRV1. Note: 0% is about no effect. As to conditions: CHO-K1 GPR32 beta-arrestin PathHunter luminescence, 90 min; at 76.9 µM; hits give high values; zero percent set by DMSO-only wells. The method, boiled down: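 GPR32 activation in stably transfected CHO-K1 cells, detected as beta-arrestin recruitment by enzyme-fragment complementation. Compound exposure: 90 min, 37 °C.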
Sequence of UniProt O75388 (O75388 whole entry, looked up, the tested form may be a part): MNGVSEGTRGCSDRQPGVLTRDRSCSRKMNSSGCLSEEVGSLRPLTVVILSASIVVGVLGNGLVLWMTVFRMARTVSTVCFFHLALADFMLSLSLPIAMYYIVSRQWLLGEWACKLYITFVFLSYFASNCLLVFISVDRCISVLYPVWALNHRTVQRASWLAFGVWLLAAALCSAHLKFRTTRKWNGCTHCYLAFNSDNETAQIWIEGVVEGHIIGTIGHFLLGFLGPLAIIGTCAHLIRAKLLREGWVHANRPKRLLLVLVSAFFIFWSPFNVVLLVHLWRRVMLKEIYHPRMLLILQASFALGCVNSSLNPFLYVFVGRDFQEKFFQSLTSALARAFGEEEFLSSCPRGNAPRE
For the compound `Cc1ccc(NC(=O)Nc2cc3c(cc2N2CCCCC2)n(C)c(=O)n3C)cc1Cl`, the activation is inactive: -2.89%.

As for `CC(=O)Nc1c(C(=O)Nc2cccc(C)c2)nnn1-c1ccc(C)cc1`, the activation was active: 119%.

Regarding `CCOC(=O)c1ccc(NC(=O)c2c(C)oc3nc(C)nc(N4CCCC4)c23)cc1`, the activation was inactive: -11%.

With `CCC1CCCCN1S(=O)(=O)c1ccc(N2CCCCS2(=O)=O)cc1` (stereo not drawn), the activation was inactive: -16.5%.

`COc1ccc(-c2[nH]ncc2C(=O)NCc2cccc(F)c2)cc1`: the activation was inactive: -8.69%.

As for `COc1ccc(C2=NN(C(C)=O)C(c3cn(-c4ccccc4)nc3-c3cccs3)C2)cc1` (stereo not drawn), the activation was inactive: -5.3%.

For the compound `COc1cccc(-n2c(=O)c3c4c(sc3n(Cc3ccc(F)cc3Cl)c2=O)CCCC4)c1`, the activation was inactive: -14.3%.

For the compound `O=C(CCCc1nc(-c2ccco2)no1)Nc1ccccc1[N+](=O)[O-]`, the activation is inactive: -14.8%.

For the compound `COCCNC(=O)c1ccc2nc(CCc3ccccc3)oc2c1`, the activation is inactive: -3.89%.

`CCc1ccc(NC(=O)CC(c2ccc(C)cc2)N2Cc3ccccc3C2=O)cc1` (stereo not drawn): the activation was inactive: -14.8%.

Take `Cc1ccc(-n2nc(-c3ccc(F)cc3)c3cnc4cc5c(cc4c32)OCO5)cc1C`: the activation is inactive: -2.64%.

With `COc1ccc(NC(=O)c2oc3ccc(S(=O)(=O)N(C)C4CCCCC4)cc3c2C)cc1Cl`, the activation was inactive: 2.21%.

Consider `CCc1ccc(-c2cc(C)no2)cc1S(=O)(=O)N1CCN(c2cccc(Cl)c2)CC1`, for which the activation was inactive: -13.3%.

On to `Cc1c(C(=O)Nc2ccc(Br)cc2F)oc2ccc(S(=O)(=O)N3CCC4(CC3)OCCO4)cc12`, for which the activation was inactive: -3.3%.

With `Cc1ccc(Cl)cc1N1CCN(C(=O)CCSCc2ccccc2F)CC1`, the activation is inactive: -30.8%.

In the case of `O=C(c1ccco1)c1cn(CCOc2ccc(Cl)cc2)c2ccccc12`, the activation was inactive: 14.9%.

For the compound `Cc1ccc(-c2noc(CSc3nnc(-c4ccc(Cl)cc4)n3C)n2)cc1`, the activation is inactive: -26.4%.

For `Cc1cccc(C(=O)NCC(c2ccc3c(c2)OCO3)N2CCOCC2)c1` (stereo not drawn), the activation is inactive: -8.22%.

On to `CC(=O)c1ccc(NC(=O)Cn2c3ncccc3c(=O)n2-c2ccc(C)cc2)cc1`, for which the activation was inactive: -2.07%.

On to `COc1ccc(NC(=O)c2cnc(SCC(=O)Nc3nc4ccc(C)cc4s3)n(C)c2=O)cc1`, for which the activation was inactive: -4.45%.

`CCc1cccc2c3c([nH]c12)C(CC)(CC(=O)O)OCC3` (stereo not drawn): the activation is inactive: -1.13% and inactive: 4.46%.

With `CCc1ccc(C2C(C(=O)Nc3ccccc3)=C(C)Nc3nc(SCC(=O)c4ccc(C)cc4)nn32)cc1` (stereo not drawn), the activation was inactive: -7.18%.

Regarding `COc1ccc(C(CNC(=O)c2ccc(C)cc2)N2CCOCC2)cc1` (stereo not drawn), the activation is inactive: -21.6%.

As to `O=C(c1cccs1)N1CCCc2cc(NS(=O)(=O)c3ccc(Cl)cc3)ccc21`, the activation was inactive: -15.2%.

Turning to `Cc1noc(NS(=O)(=O)c2ccc(N)cc2)c1C`, the activation was inactive: -2%.

Turning to `O=C(CSc1nccn1Cc1ccccc1)NC1CCCC1`, the activation was inactive: 8.18%.

Take `COc1ccccc1-c1cc(C(F)(F)F)nc(S(=O)(=O)CCCC(=O)Nc2cc(Br)ccc2O)n1`: the activation is inactive: 17.1%.

Turning to `CCC(=O)N1CCc2cc(CNC(=O)Nc3ccc(OC)cc3OC)ccc21`, the activation was inactive: -2.05%.

On to `O=C(NCCc1ccccc1)C(=O)NCC(c1cccnc1)N1CCN(c2ccc(F)cc2)CC1` (stereo not drawn), for which the activation is inactive: 8.37%.

Turning to `CCN(C(=O)CN(C)S(=O)(=O)c1ccc2c(c1)n(C)c(=O)c(=O)n2C)c1cccc(C)c1`, the activation is inactive: -10.1%.

With `COc1ccc(NC(=O)C2CCN(S(=O)(=O)c3c(C)noc3/C=C/c3ccco3)CC2)cc1`, the activation was inactive: -27.5%.

`CCCCC(=O)O[C@]1(C(=O)CO)CC[C@H]2[C@@H]3CCC4=CC(=O)CC[C@]4(C)[C@H]3[C@@H](O)C[C@@]21C`: the activation was inactive: 4.88%.

On to `CN(C)c1ccc(C(CNS(=O)(=O)c2cc(F)ccc2F)N2CCOCC2)cc1` (stereo not drawn), for which the activation was inactive: -21.2%.

For the compound `O=C(CSCc1ccc(F)cc1)N1CCN(c2ccccc2)CC1`, the activation is inactive: -12.9%.

In the case of `Cc1cc(C)c(Cn2c(=O)n(CCCCCC(=O)NCc3ccc4c(c3)OCO4)c(=O)c3sccc32)c(C)c1`, the activation is inactive: -9.41%.

For `CCN(CC)C(=O)c1sc(NC(=O)C2c3ccccc3Oc3ccccc32)c(C(=O)OC(C)C)c1C`, the activation was inactive: 5.64%.

Turning to `COc1ccc(NS(=O)(=O)c2ccc3[nH]c4c(c3c2)CCCC4)c(OC)c1`, the activation was inactive: 14.7%.

Consider `CCOc1ccc(Nc2nc3ccccc3c3nnc(CC)n23)cc1`, for which the activation was inactive: -6.68%.

As for `COc1cccc(NC(=O)Cn2c(=O)n(-c3cccc(OC)c3)c(=O)c3c4c(sc32)CCCC4)c1`, the activation is inactive: -5.11%.

With `CCCCCOc1ccc(C2SC(=O)NC2=O)cc1OCC` (stereo not drawn), the activation is inactive: -4.04%.

As to `CCN(C(=O)CCNC(=O)Cn1cnc2ccccc2c1=O)c1cc(OC)ccc1OC`, the activation is inactive: -4.2%.

With `COc1ccc(NC(=O)CSC2=Nc3ccccc3N=C(c3ccc(F)cc3)C2)cc1OC`, the activation was inactive: -15.9%.

Take `Cc1ccc2c(c1)c1c(c(=O)n(-c3ccccc3C)c(=O)n1CC(=O)c1ccc(Cl)cc1)n2C`: the activation was inactive: -0.89%.

Consider `CN(C)c1ccc(NC(=O)Cn2nnc3sc4c(c3c2=O)CCC(C(C)(C)C)C4)cc1` (stereo not drawn), for which the activation was inactive: -3.71%.

For the compound `O=S(=O)(c1ccc(Cl)cc1)c1nnn2c1nc(NC1CCCCC1)c1sccc12`, the activation was inactive: -21.1%.

In the case of `CCC1CN(C(=O)N2CCC(C(=O)NCc3cc(OC)c(OC)c(OC)c3)CC2)c2ccccc2O1` (stereo not drawn), the activation was inactive: -11.7%.

On to `CN(C)c1ccc(CNC(=O)CN2C(=O)CSc3ccc(S(=O)(=O)N4CCCC4)cc32)cc1`, for which the activation is inactive: -23.5%.

As for `CCSc1ncc(Cl)c(C(=O)Nc2nc3ccc(Cl)cc3s2)n1`, the activation was inactive: -15.4%.

For the compound `O=C(Nc1ccc(O)c(-c2nc3ccccc3o2)c1)c1ccc(Br)cc1`, the activation is inactive: 14.6%.

With `CN(C)c1cccc(C(=O)Nc2nc3ccc(S(=O)(=O)N4CCCC4)cc3s2)c1`, the activation was inactive: -11.9%.

For `Cc1cccc(NC(=O)c2oc3ccccc3c2NC(=O)c2cc(=O)c3ccc(C)cc3o2)c1`, the activation was inactive: -11.8%.

Consider `Cc1cc(NC(=O)CCc2nc3cccnc3n2Cc2cccs2)ccc1Br`, for which the activation was inactive: -1.11%.

As for `Cc1ccc(-n2c(=O)c3c(cnn3C)n(Cc3ccc(Cl)cc3)c2=O)cc1`, the activation was inactive: -28.4%.

For `Cc1nc2ccc(CN(C)c3ccc(C(=O)N[C@@H](CCC(=O)O)C(=O)O)s3)cc2c(=O)[nH]1`, the activation is inactive: -0.694%.

In the case of `CCOc1cc(C(=O)Nc2ccc(NC(=O)c3cc4ccccc4o3)c(OC)c2)cc(OCC)c1OCC`, the activation is active: 105%.

Regarding `CCc1ccc(NC(=O)N(Cc2c[nH]c3ccccc23)C2CCCCC2)cc1`, the activation was inactive: -2.93%.

For the compound `Cc1ccc(NS(=O)(=O)c2cc(-c3cc(C)no3)ccc2C)c(Cl)c1`, the activation is inactive: -1.22%.

Turning to `CCc1ccccc1NC(=O)CSc1nnc(-c2ccc(OC)cc2)s1`, the activation is inactive: -1.8%.

In the case of `CC(=O)Nc1ccc(NC(=O)C2CCN(S(=O)(=O)c3ccc4c(c3)CCCC(=O)N4)CC2)cc1`, the activation was inactive: 21.6%.

Regarding `Cc1ccc(NC(=O)Nc2c[nH]c(=O)[nH]c2=O)c(Cl)c1`, the activation was inactive: -27.2%.

As for `CCOc1ccc2nc(N3CCCC(C(=O)Nc4cc(C)ccc4C)C3)sc2c1` (stereo not drawn), the activation is inactive: 10.2%.

As to `CCc1nn(CC(=O)NCCc2ccc(Cl)cc2)c(=O)c2cc3ccccc3n12`, the activation is inactive: -5.94%.

`Cc1cc(N2CCN(c3ccc(F)cc3)CC2)n2nc(-c3ccc(Cl)cc3)nc2n1`: the activation is inactive: -1.5%.

For the compound `CCOC(=O)c1[nH]c(C)c(CCC(=O)Nc2ccccc2C(=O)OC)c1C`, the activation is inactive: -17.5%.

On to `Cc1oc2ncn(C)c(=O)c2c1C(=O)Nc1ccc(F)cc1`, for which the activation was inactive: 7.7%.

For the compound `Cc1cc(OCC(=O)NC(Cc2c[nH]c3ccccc23)C(=O)O)ccc1Cl` (stereo not drawn), the activation is inactive: -11.3%.

Take `Cc1cccc(N2CCN(C(=O)c3oc(=O)c4ccccc4c3-c3ccccc3)CC2C)c1` (stereo not drawn): the activation is inactive: 7.12%.

In the case of `CCOc1ccc2nc(N(Cc3cccnc3)C(=O)C3CCCCC3)sc2c1`, the activation is inactive: -9.67%.

Turning to `NC[C@@H]1O[C@H](c2ccccc2)Cc2c1ccc(O)c2O`, the activation was inactive: 0.207%.

For the compound `Cc1ccc(C2CCN(C(=O)Nc3ccc(Cl)c(Cl)c3)C2)cc1` (stereo not drawn), the activation was inactive: 32.7%.

Turning to `Cc1ccc(-c2nnc(Nc3ccccc3)c3ccccc23)cc1S(=O)(=O)N1CCOCC1`, the activation was inactive: 19.5%.

Consider `Cc1ccc(CNC(=O)c2ccc3c(c2)N(Cc2ccccc2Cl)C(=O)CS3)cc1`, for which the activation is inactive: 20.9%.

Take `COc1ccc(Cn2c(CCC(=O)Nc3ccc(C)cc3C)nc3cccnc32)cc1`: the activation was inactive: -8.9%.

Consider `CC(C)OCCCNC(=O)c1ccc(Cn2c(=O)c3cccn3c3cccnc32)cc1`, for which the activation was inactive: -9.3%.

Take `COc1cccc(CNC(=O)c2cccc(-n3c(C)nc4cccnc43)c2C)c1`: the activation was inactive: 2.84%.

`Cc1cccc(CSc2nc(=O)c3c(n2C)NC(=O)CC3c2cc(F)cc(F)c2)c1` (stereo not drawn): the activation was inactive: -16.1%.

In the case of `Cc1oc2ccc(O)c(CN3CCN(C)CC3)c2c1C(=O)Nc1ccccc1`, the activation was inactive: 9.75%.

As for `O=C1CC2(CCCC2)CC(=O)N1CCNCC1COc2ccccc2O1` (stereo not drawn), the activation was inactive: 3.1%.

Take `Cc1ccsc1CN(C(=O)COc1ccc(Cl)cc1)C1CCS(=O)(=O)C1` (stereo not drawn): the activation is inactive: -24%.

As for `O=C(CCn1c(=O)c2sccc2n(CC(=O)Nc2ccccc2)c1=O)NCc1ccccc1Cl`, the activation was inactive: 4.76%.

Consider `CCOc1cccc2cc(-c3cn4c(n3)sc3ccccc34)c(=O)oc12`, for which the activation was inactive: -2.93%.

`COc1ccc(-c2[nH]ncc2C(=O)NCc2cccc(OC)c2)cc1`: the activation was inactive: -2.02%.

On to `CCOC(=O)[C@H](CCc1ccccc1)N[C@@H](C)C(=O)N1CCC[C@H]1C(=O)O`, for which the activation was inactive: 17.4%.
